# Test results taken from the supplement of paper PMC9135407.
# “And” between values parts separate entries of the source, which are not always exact repeats. Identical values can stand only once. Counter-ions that a name gives are not always drawn. Out of some 5,800 compounds screened, about 620 (11%) showed activity.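 How the source made its calls: active = score above a cut-off or among the top three wells of a plate; in these data no inactive exceeds 0.85.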 The list shows a part of the results, in another mix than the full data.
# System: primary human hepatic stellate cells (donor 1)
# Test: scaled lipid accumulation score (0 = DMSO-like, 1 = nortriptyline-like); higher = stronger HSC inactivation (lipid re-accumulation), active = hit call of the paper
# Details: 48 h
# [1] = library stock concentration: 3.33 mM
# [2] = library stock concentration: 5.9 mM
# [3] = library stock concentration: 10 mM
# [4] = library stock concentration: 80 uM
# [5] = library stock concentration: 400 uM
# [6] = library stock concentration: 2 mM
# [7] = library stock concentration: 1 mM
structure (smiles),measurement,setting,value
COC1=C(OC)C(=O)C(CCCCCCCCCCO)=C(C)C1=O [Idebenone],scaled lipid accumulation score,[1],inactive: ≤ 0
same,scaled lipid accumulation score,[2],inactive: 0.007
same,scaled lipid accumulation score,[3],inactive: ≤ 0
Cc1nc(NC(=O)N2CCC[C@H]2C(N)=O)sc1-c1csc(C(C)(C)C)n1,scaled lipid accumulation score,[4],inactive: ≤ -0.016
same,scaled lipid accumulation score,[5],inactive: ≤ -0.016
same,scaled lipid accumulation score,[6],inactive: ≤ -0.016
same,scaled lipid accumulation score,[1],inactive: ≤ 0
same,scaled lipid accumulation score,[3],inactive: ≤ 0 and inactive: ≤ -0.016
O=C1CCC(c2ccc(-n3ccnc3)cc2)=NN1 [Imazodan],scaled lipid accumulation score,[3],inactive: ≤ -0.07
C=CC(=O)Nc1cc(NC(=O)c2ccc(C)c(NC(=O)c3ccno3)c2)cc(C(F)(F)F)c1,scaled lipid accumulation score,[4],inactive: ≤ 0
same,scaled lipid accumulation score,[5],inactive: ≤ 0
same,scaled lipid accumulation score,[6],inactive: ≤ 0
same,scaled lipid accumulation score,[3],inactive: 0.311
O=C(NCCCNc1nc(Nc2cccc(NC(=O)N3CCCC3)c2)ncc1I)c1cccs1,scaled lipid accumulation score,[3],active: 0.937
NCC(O)c1ccc(O)c(O)c1 (racemic),scaled lipid accumulation score,[3],inactive: ≤ 0
CC(C)CCCCCCC/C=C/C(=O)O [trans-.DELTA.2-11-methyl-Dodecenoic Acid],scaled lipid accumulation score,[7],inactive: ≤ 0
CCOC(=O)OC(C)OC(=O)[C@@H]1N2C(=O)[C@@H](NC(=O)[C@H](N)c3ccccc3)[C@H]2SC1(C)C (stereo not given in full) [Bacampicillin hydrochloride],scaled lipid accumulation score,,inactive: ≤ 0
same,scaled lipid accumulation score,library stock concentration: 4 mM,inactive: ≤ 0
CO/N=C(\C(=O)N[C@@H]1C(=O)N2C(C(=O)O)=C(CSc3nc(=O)c(O)nn3C)CS[C@H]12)c1csc(N)n1 [Ceftriaxone sodium trihydrate],scaled lipid accumulation score,library stock concentration: 3.1 mM,inactive: ≤ 0
same,scaled lipid accumulation score,[3],inactive: ≤ -0.027 and inactive: 0.254
CO/N=C(\C(=O)N[C@@H]1C(=O)N2C(C(=O)O)=C(CSc3nc(=O)c(O)nn3C)CS[C@H]12)c1csc(N)n1 [Ceftriaxone sodium],scaled lipid accumulation score,[3],inactive: ≤ 0
Oc1ccccc1O [Pyrocatechol],scaled lipid accumulation score,[3],inactive: 0.09
COc1cc(OC)c2c(=O)[nH]c(-c3cc(C)c(OCCO)c(C)c3)nc2c1,scaled lipid accumulation score,[1],inactive: ≤ -0.009
same,scaled lipid accumulation score,[3],inactive: 0.135
O=C(c1cccc(Cl)c1F)N1CCN(Cc2cccc(Nc3nccs3)n2)CC1,scaled lipid accumulation score,[1],inactive: ≤ 0
same,scaled lipid accumulation score,[3],inactive: 0.453
CC(C)[C@H]1C(=O)N[C@@H](CCCNC(=N)N)C(=O)NCC(=O)N[C@@H](CC(=O)O)C(=O)N[C@H](Cc2ccccc2)C(=O)N1C [Cilengitide],scaled lipid accumulation score,[1],inactive: 0.272
same,scaled lipid accumulation score,[3],inactive: 0.551
FC(F)(F)c1ccccc1-n1ccnc1 [1-[2-(Trifluoromethyl)phenyl]imidazole],scaled lipid accumulation score,[3],inactive: ≤ 0
O=C(Cc1cccs1)N[C@@H]1C(=O)N2C(C(=O)[O-])=C(C[n+]3ccccc3)CS[C@H]12 [Cephaloridine],scaled lipid accumulation score,[3],inactive: ≤ 0
CCCCOC(=O)NS(=O)(=O)c1sc(CC(C)C)cc1-c1ccc(Cn2c(CC)nc3c(C)cc(C)nc32)cc1,scaled lipid accumulation score,[3],inactive: 0.173
CSc1ccc2c(c1)C(N1CCN(C)CC1)Cc1ccccc1S2.O=C(O)/C=C\C(=O)O (stereo not given) [Methiothepin maleate],scaled lipid accumulation score,[3],active: 1.41
Cl.C(=C\CCNC)(/c1c(cccc1)CC2)\c3c2cccc3 [Nortriptyline hydrochloride],scaled lipid accumulation score,,active: 1.13
NC1(C(=O)O)CCCC1 [Cycloleucine],scaled lipid accumulation score,[3],inactive: ≤ 0
NCCCC[C@H](N[C@@H](CCc1ccccc1)C(=O)O)C(=O)N1CCC[C@H]1C(=O)O [Lisinopril],scaled lipid accumulation score,,inactive: ≤ 0
same,scaled lipid accumulation score,library stock concentration: 4.9 mM,inactive: 0.025 and inactive: ≤ 0
same,scaled lipid accumulation score,[3],inactive: ≤ 0
COc1ccc(NC(=O)c2ccc(-c3ccc(-c4noc(C)n4)cc3C)cc2)cc1OCCN(C)C,scaled lipid accumulation score,[3],inactive: 0.491
CC(C)(C)NC[C@H](O)COc1nsnc1N1CCOCC1 [Timolol maleate (s)],scaled lipid accumulation score,library stock concentration: 6.3 mM,inactive: ≤ -0.006
CC(C)(C)NC[C@H](O)COc1nsnc1N1CCOCC1 [Timolol Maleate],scaled lipid accumulation score,[1],inactive: ≤ 0
same,scaled lipid accumulation score,[3],inactive: ≤ -0.001
CC(C)(C)NC[C@H](O)COc1nsnc1N1CCOCC1 [Timolol maleate],scaled lipid accumulation score,[3],inactive: ≤ 0
CC(C)(C)NC[C@H](O)COc1nsnc1N1CCOCC1 [S(-)-Timolol maleate],scaled lipid accumulation score,[3],inactive: ≤ 0 and inactive: 0.026
CC(C)(C)NC[C@H](O)COc1nsnc1N1CCOCC1 [Timolol maleate salt],scaled lipid accumulation score,,inactive: ≤ 0
CC(C)(C)NC[C@H](O)COc1nsnc1N1CCOCC1 [(S)-Timolol maleate],scaled lipid accumulation score,[3],inactive: ≤ 0
C[C@]12CCC(=O)C=C1CC[C@@H]1[C@@H]2[C@@H](O)C[C@@]2(C)[C@H]1CC[C@]2(O)C(=O)COC(=O)CCC(=O)O [Hydrocortisone hemisuccinate],scaled lipid accumulation score,[3],inactive: ≤ 0
C[C@]12CCC(=O)C=C1CC[C@@H]1[C@@H]2[C@@H](O)C[C@@]2(C)[C@H]1CC[C@]2(O)C(=O)COC(=O)CCC(=O)O,scaled lipid accumulation score,[3],inactive: 0.064
c1ccc2c(c1)CCC[C@H]2Nc1nc2ccccc2[nH]1 [NS8593 hydrochloride],scaled lipid accumulation score,[3],inactive: 0.362
O=C(Nc1cccc2c(=O)cc(-c3nnn[nH]3)oc12)c1ccc(OCCCCc2ccccc2)cc1 [Pranlukast],scaled lipid accumulation score,[7],inactive: ≤ 0
same,scaled lipid accumulation score,[1],inactive: ≤ 0
same,scaled lipid accumulation score,[3],inactive: ≤ 0
Cn1c(=O)c2nc[nH]c2n(C)c1=O [Theophylline],scaled lipid accumulation score,[3],inactive: ≤ 0
Cn1c(=O)c2nc[nH]c2n(C)c1=O [Theophylline monohydrate],scaled lipid accumulation score,,inactive: ≤ 0
C=C1c2cccc(O)c2C(=O)C2=C(O)[C@]3(O)C(=O)C(C(N)=O)=C(O)[C@@H](N(C)C)[C@@H]3[C@@H](O)[C@H]12 [Methacycline hydrochloride],scaled lipid accumulation score,,inactive: 0.049
same,scaled lipid accumulation score,[3],inactive: ≤ 0
COc1cc2cc3c4cc(OC)c(OC)cc4cc[n+]3c(C)c2cc1OC [Coralyne chloride hydrate],scaled lipid accumulation score,,inactive: 0.028
COc1cc2cc3c4cc(OC)c(OC)cc4cc[n+]3c(C)c2cc1OC [Coralyne chloride],scaled lipid accumulation score,[3],inactive: ≤ 0
O=C(N[C@@H](Cc1ccccc1)C(=O)CCl)OCc1ccccc1 [Z-L-Phe chloromethyl ketone],scaled lipid accumulation score,[3],inactive: 0.477
Cc1scc2c1N(C(=O)CN1CCN(C)CC1)c1ccccc1NC2=O [Telenzepine 2HCl],scaled lipid accumulation score,library stock concentration: 5.4 mM,inactive: 0.006
Cc1scc2c1N(C(=O)CN1CCN(C)CC1)c1ccccc1NC2=O [Telenzepine dihydrochloride],scaled lipid accumulation score,,inactive: ≤ 0
same,scaled lipid accumulation score,[3],inactive: 0.052 and inactive: 0.027
Cc1scc2c1N(C(=O)CN1CCN(C)CC1)c1ccccc1NC2=O [Telenzepine hydrochloride],scaled lipid accumulation score,[3],inactive: 0.084
Cc1cc2c(cc1Cl)N(C(=O)Nc1ccc(Oc3cccnc3C)nc1)CC2,scaled lipid accumulation score,[3],inactive: 0.832
COc1cc2nc(N3CCCN(C)CC3)nc(NC3CCN(Cc4ccccc4)CC3)c2cc1OC.Cl.Cl.Cl.O,scaled lipid accumulation score,[7],active: 0.804
"CN(C)CCC(c1ccc(Cl)cc1)c1ccccn1 (single isomer, unassigned; (+)) [(+)-Chlorpheniramine maleate]",scaled lipid accumulation score,[3],inactive: 0.803
COc1ccc(CN(CCN(C)C)c2ccccn2)cc1 [Pyrilamine maleate],scaled lipid accumulation score,,inactive: 0.157
same,scaled lipid accumulation score,library stock concentration: 5 mM,inactive: ≤ 0
same,scaled lipid accumulation score,[3],inactive: 0.006 and inactive: 0.264
COc1ccc(CN(CCN(C)C)c2ccccn2)cc1 [Mepyramine maleate],scaled lipid accumulation score,library stock concentration: 7 mM,inactive: ≤ -0.001
same,scaled lipid accumulation score,[3],inactive: 0.294
CCCNC(C)C(=O)Nc1ccccc1C (stereo not given) [Prilocaine hydrochloride],scaled lipid accumulation score,,inactive: ≤ 0
same,scaled lipid accumulation score,library stock concentration: 7.8 mM,inactive: ≤ 0
same,scaled lipid accumulation score,[3],inactive: ≤ 0 and inactive: ≤ -0.027
CCCNC(C)C(=O)Nc1ccccc1C (stereo not given) [Prilocaine],scaled lipid accumulation score,[1],inactive: ≤ 0
same,scaled lipid accumulation score,[3],inactive: ≤ 0
Nc1ncn([C@@H]2O[C@H](CO)[C@@H](O)[C@H]2O)c(=O)n1 [5-Azacytidine],scaled lipid accumulation score,[3],inactive: 0.208
Nc1ncn([C@@H]2O[C@H](CO)[C@@H](O)[C@H]2O)c(=O)n1 [Azacitidine],scaled lipid accumulation score,[4],inactive: ≤ 0
same,scaled lipid accumulation score,[5],inactive: ≤ 0
same,scaled lipid accumulation score,[6],inactive: ≤ 0
same,scaled lipid accumulation score,[1],inactive: ≤ 0
same,scaled lipid accumulation score,[3],inactive: 0.002 and inactive: ≤ 0
Nc1ncn([C@@H]2O[C@H](CO)[C@@H](O)[C@H]2O)c(=O)n1 [5-azacytidine],scaled lipid accumulation score,[3],inactive: ≤ 0
CC(COc1ccccc1)N(CCCl)Cc1ccccc1 (stereo not given) [Phenoxybenzamine HCl],scaled lipid accumulation score,[1],inactive: ≤ 0
same,scaled lipid accumulation score,library stock concentration: 6.6 mM,inactive: 0.025
same,scaled lipid accumulation score,[3],inactive: ≤ 0
CC(COc1ccccc1)N(CCCl)Cc1ccccc1 (stereo not given) [Phenoxybenzamine hydrochloride],scaled lipid accumulation score,,inactive: 0.065
same,scaled lipid accumulation score,[2],inactive: ≤ 0
CC(COc1ccccc1)N(CCCl)Cc1ccccc1 (stereo not given) [Dibenzyline],scaled lipid accumulation score,[3],inactive: 0.174
CC(COc1ccccc1)N(CCCl)Cc1ccccc1 (stereo not given) [Phenoxybenzamine],scaled lipid accumulation score,library stock concentration: 16.5 mM,inactive: ≤ -0.012
"CCCCCCCC/C=C/CCCCCCCC(=O)Nc1c(C(C)C)cccc1C(C)C [Oleic Acid-2,6-diisopropylanilide]",scaled lipid accumulation score,[7],inactive: ≤ 0
CNc1ncnc2c1ncn2[C@H]1C[C@H](OP(=O)(O)O)[C@@H](COP(=O)(O)O)O1,scaled lipid accumulation score,[3],inactive: 0.065
O=C(Nc1ccc(OC(F)(F)F)cc1)c1sccc1NCc1ccnc2ccccc12,scaled lipid accumulation score,[4],inactive: 0.018
same,scaled lipid accumulation score,[5],inactive: 0.035
same,scaled lipid accumulation score,[6],inactive: ≤ -0.009
same,scaled lipid accumulation score,[1],inactive: ≤ 0
same,scaled lipid accumulation score,[3],inactive: ≤ 0 and inactive: ≤ -0.004
COc1cc(/C=C/C(=O)N2CCN(CC(=O)N3CCCC3)CC2)cc(OC)c1OC [Cinepazide maleate],scaled lipid accumulation score,[1],inactive: 0.048
same,scaled lipid accumulation score,[3],inactive: ≤ 0
Cc1c(-c2ccnn2C)cc(C(=O)NCc2ccc(S(C)(=O)=O)cn2)c(=O)n1-c1cccc(C(F)(F)F)c1 [Alvelestat (AZD9668)],scaled lipid accumulation score,[1],inactive: ≤ -0.009
same,scaled lipid accumulation score,[3],inactive: 0.21
